Measurements from paper PMC4005756.
Results are given in words; binding and its absence hold for the method and conditions named. Binding seen in cells or lysates may run through a third protein. Some binding calls cover weakened binding; strength is not graded here.

By UniProt entry, the sequences of proteins in these tests, tags left out.
UniProt P00519: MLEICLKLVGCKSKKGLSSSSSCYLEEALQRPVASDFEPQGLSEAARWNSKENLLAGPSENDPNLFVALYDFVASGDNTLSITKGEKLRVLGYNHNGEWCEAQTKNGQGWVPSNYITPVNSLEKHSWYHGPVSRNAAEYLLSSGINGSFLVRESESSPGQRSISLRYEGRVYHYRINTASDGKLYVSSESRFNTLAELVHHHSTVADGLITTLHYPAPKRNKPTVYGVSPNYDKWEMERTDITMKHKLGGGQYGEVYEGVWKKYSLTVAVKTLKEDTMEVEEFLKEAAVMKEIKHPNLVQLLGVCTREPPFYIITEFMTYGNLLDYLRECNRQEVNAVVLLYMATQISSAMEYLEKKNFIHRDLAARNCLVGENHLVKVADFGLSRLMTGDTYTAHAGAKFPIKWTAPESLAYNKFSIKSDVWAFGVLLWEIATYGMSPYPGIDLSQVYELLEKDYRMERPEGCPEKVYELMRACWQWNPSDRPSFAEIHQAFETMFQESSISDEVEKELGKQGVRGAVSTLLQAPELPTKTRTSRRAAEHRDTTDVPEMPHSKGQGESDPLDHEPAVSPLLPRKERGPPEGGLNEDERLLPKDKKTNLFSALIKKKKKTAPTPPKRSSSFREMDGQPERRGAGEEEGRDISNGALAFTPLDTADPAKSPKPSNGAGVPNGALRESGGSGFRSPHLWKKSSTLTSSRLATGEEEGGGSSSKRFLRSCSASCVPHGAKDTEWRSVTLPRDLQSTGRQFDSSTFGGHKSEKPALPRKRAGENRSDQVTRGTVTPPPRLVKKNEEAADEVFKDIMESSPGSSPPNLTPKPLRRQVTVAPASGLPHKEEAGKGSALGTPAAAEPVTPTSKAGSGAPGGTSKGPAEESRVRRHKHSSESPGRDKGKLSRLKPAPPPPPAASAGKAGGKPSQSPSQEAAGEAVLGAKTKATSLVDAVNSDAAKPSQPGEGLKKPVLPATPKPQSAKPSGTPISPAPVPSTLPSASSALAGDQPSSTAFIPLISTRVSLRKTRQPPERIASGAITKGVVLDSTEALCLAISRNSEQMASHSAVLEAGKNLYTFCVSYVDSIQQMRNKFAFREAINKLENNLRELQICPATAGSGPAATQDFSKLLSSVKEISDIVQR

T1: geminin (human (endogenous in HME)) (UniProt O75496)
T1 sequence: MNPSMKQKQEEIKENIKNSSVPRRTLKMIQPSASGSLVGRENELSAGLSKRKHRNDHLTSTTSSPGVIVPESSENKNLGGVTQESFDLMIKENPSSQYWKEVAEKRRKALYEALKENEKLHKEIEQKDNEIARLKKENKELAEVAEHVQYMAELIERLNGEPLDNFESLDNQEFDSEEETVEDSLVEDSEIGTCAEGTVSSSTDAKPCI

T2: Cdt1 (human (endogenous in HME)) (UniProt Q9H211)
T2 sequence: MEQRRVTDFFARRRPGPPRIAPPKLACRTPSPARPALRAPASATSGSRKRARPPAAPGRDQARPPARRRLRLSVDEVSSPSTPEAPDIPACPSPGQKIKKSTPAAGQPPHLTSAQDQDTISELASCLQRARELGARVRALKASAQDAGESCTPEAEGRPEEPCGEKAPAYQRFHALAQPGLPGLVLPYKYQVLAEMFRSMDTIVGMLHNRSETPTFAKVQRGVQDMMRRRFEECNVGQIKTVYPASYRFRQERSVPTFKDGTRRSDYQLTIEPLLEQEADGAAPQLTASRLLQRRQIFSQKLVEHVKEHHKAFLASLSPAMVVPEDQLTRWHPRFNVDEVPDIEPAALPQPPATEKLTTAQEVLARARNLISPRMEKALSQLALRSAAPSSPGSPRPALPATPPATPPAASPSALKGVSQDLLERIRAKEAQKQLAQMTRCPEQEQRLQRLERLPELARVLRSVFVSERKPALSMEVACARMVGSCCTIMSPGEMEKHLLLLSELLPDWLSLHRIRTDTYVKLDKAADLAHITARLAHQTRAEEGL

B1: Cdt1 (protein, UniProt Q9H211 1-546)
chain: T2 sequence
B2: geminin (protein, UniProt O75496 1-209)
chain: T1 sequence

Assays:
[1] = molecular target: T1, geminin (human (endogenous in HME)); experiment: co-IP; anti-geminin antibody IP from sonicated extracts of S-synchronized HME cells; co-precipitated proteins cut from a gel and identified by micro-sequencing
[2] = molecular target: T1, geminin (human (endogenous in HME)); experiment: co-IP; anti-geminin antibody IP from sonicated extracts of G2/M-synchronized HME cells; co-precipitated proteins cut from a gel and identified by micro-sequencing
[3] = molecular target: T2, Cdt1 (human (endogenous in HME)); experiment: condition: only cycling, G0/G1-, G2/M- or M/G1-synchronized cells; co-IP; anti-Cdt1 antibody IP from sonicated cycling or G0/G1-, G2/M- and M/G1-synchronized HME cells (extracts other than S phase), immunoblot with anti-geminin antibody
[4] = molecular target: c-Abl (human (endogenous in HME)) (UniProt P00519); experiment: co-IP; anti-Cdt1 or anti-c-Abl antibody IP from sonicated synchronized HME cells (S for Cdt1; G2/M and M/G1 for c-Abl), immunoblot with anti-geminin antibody
[5] = molecular target: T2, Cdt1 (human (endogenous in HME)); experiment: as above

Molecule | binding [1] | binding [2] | binding [3] | binding [4] | binding [5]
c-Abl (from UniProt P00519 1-1130) (enzyme) | no binding (condition: S-phase-synchronized cells) | binds | – | – | –
B1 | binds | no binding (condition: G2/M-synchronized cells) | – | – | –
B2 | – | – | no binding | binds | binds
